Test results published in PubChem BioAssay AID1347165 (National Center for Advancing Translational Sciences (NCATS), 2019).
About 5,700 (2.6%) of roughly 220,000 compounds were called active. The shares of active, inactive and inconclusive entries below differ from those in the screen. The call rests on the fitted dose curve; in most records, active means well fitted inhibition curve with a large enough effect; inconclusive means small, poorly fitted or top-dose-only effect; inactive means no such curve, though single readings can be large or run the other way. A potency beside an inconclusive call is a rough fit, not a confirmed value. Some compounds were tested as several samples or in several runs, with calls that do not always agree.

Target: Lysine-specific demethylase 5B (Homo sapiens) (UniProt Q9UGL1)
UniProt Q9UGL1, sequence (Q9UGL1 whole entry, looked up): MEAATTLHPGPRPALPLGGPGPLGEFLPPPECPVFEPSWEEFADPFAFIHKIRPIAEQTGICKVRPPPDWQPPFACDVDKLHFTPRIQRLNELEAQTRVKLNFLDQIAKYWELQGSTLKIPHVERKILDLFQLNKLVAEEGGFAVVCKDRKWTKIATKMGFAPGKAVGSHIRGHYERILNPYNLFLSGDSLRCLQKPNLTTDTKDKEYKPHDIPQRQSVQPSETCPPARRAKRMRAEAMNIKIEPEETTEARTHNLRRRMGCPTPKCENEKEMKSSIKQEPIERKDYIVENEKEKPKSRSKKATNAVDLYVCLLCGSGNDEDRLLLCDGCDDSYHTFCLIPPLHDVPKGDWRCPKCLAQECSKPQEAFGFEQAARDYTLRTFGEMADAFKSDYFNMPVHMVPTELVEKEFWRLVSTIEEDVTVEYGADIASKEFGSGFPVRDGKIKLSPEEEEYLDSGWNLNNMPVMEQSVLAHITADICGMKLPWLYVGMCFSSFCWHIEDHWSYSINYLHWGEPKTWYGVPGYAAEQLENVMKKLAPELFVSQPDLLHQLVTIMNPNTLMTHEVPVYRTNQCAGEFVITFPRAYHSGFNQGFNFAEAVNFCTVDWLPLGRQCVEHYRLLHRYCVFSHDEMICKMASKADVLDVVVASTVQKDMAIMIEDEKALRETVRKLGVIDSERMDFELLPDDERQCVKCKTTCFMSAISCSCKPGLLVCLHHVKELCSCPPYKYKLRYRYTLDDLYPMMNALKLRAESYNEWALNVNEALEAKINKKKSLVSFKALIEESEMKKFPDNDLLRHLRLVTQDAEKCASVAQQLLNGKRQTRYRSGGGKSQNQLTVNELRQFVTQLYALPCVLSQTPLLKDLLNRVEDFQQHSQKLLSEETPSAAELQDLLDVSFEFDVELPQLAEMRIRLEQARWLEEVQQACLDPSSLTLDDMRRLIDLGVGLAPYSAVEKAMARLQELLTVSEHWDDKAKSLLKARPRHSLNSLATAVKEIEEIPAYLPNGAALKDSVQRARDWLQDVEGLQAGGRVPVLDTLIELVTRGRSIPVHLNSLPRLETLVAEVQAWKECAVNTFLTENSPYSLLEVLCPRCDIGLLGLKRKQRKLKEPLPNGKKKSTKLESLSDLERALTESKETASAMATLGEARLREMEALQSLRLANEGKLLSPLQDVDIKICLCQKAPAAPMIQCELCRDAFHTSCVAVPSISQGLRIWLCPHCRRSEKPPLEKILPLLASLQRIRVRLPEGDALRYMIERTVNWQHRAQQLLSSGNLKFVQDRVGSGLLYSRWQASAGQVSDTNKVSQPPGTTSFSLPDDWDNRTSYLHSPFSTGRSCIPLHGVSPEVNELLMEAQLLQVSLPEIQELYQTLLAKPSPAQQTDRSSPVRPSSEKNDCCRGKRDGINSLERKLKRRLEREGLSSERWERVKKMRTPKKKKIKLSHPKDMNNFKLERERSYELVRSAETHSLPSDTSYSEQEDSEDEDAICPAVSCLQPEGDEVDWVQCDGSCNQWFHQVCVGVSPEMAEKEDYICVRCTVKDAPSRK
Assay: Primary screen for KDM5B Histone Demethylases FDH-coupled qHTS; further: nearly all actives have a fitted effect of over 70% in size; on activity change, negative = inhibition: 0% is about no effect
Details: FDH-coupled NADH fluorescence (FDH is formaldehyde dehydrogenase); activity change, negative = inhibition: at 57.7 µM (top of the series) unless noted
In short: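 KDM5BΔAP (200 nM final) in 50 mM HEPES pH 7.5, 0.01% Tween-20 was preincubated 10 min at RT with compound over a concentration range. Substrate mix (H3K4me3 12.5 µM, α-KG 25 µM, Fe²⁺, ascorbate, NAD⁺, FDH) was added, and NADH fluorescence change over 30 min gave dose-response curves.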
Potency means the concentration at half of the fitted maximal effect; tags describe the fitted curve by direction and shape.

Compound	Potency	activity change, negative = inhibition
Cc1ccccc1/C=C/C(=O)c1cc2ccccc2o1	inconclusive: 35.5 µM [inhibitor, partial curve, poor fit]	
CONC(=O)C(NC(=O)C12CC3CC(CC(C3)C1)C2)C(C)C (stereo not drawn)	inactive	
O=C(CN1C(=O)COc2ccc(S(=O)(=O)N3CCCCCC3)cc21)Nc1cccc(Cl)c1	inactive	
COc1ccc(-c2cc(C(=O)Oc3ccc(C)cc3)c3cc(C)ccc3n2)cc1	inconclusive: 25.1 µM [inhibitor, partial curve, poor fit]	
CCOc1ccccc1C(=O)N[C@@H]1CN(c2ccncn2)C[C@H]1CO	inactive	
Cc1c(C(=O)N2CCCC2)oc2c1-c1nn(CC(=O)NCc3ccccc3Br)cc1CC2	inconclusive: 4.47 µM [inhibitor, full curve, poor fit]	
CCSc1nc2c(c(=O)[nH]c(=O)n2C)n1Cc1ccccc1Cl	inactive	
O=C(NC1CCCN(Cc2ccccc2F)C1)c1cccc(N2CCCC2=O)c1 (stereo not drawn)	inactive	
Cc1noc(C)c1CC(=O)N1CCc2c(c(-c3nncn3C)nn2C)C1	inconclusive: 20 µM [inhibitor, partial curve, poor fit]	
CC1Cn2c(C(=O)NCCc3ccc(Cl)cc3)cc3cccc(c32)S1 (stereo not drawn)	inconclusive: 35.5 µM [inhibitor, partial curve, poor fit]	
CCOc1ccc(NC(=O)C2CCN(c3nnc(C)c4c(C)n(-c5ccccc5)nc34)CC2)cc1	inconclusive: 2.51 µM [inhibitor, full curve, poor fit]	
Cc1ccc(NC(=O)CSc2nc3c([nH]c4ccccc43)c(=O)n2-c2ccccc2)cc1Cl	inconclusive: 35.5 µM [inhibitor, single point]	
Cc1ccc(-c2[nH]c3c(c2-c2c(-n4cccc4)n(C)c(=O)[nH]c2=O)c(=O)[nH]c(=O)n3C)cc1	inconclusive: 10 µM [inhibitor, partial curve, poor fit]	
COc1ccc(-c2cn3c(n2)N(C(=O)Cc2cccs2)CCC3)cc1	inconclusive: 25.1 µM [inhibitor, partial curve]	
Cc1ccccc1-n1cc(CN(C)Cc2nc(-c3ccc(C(F)(F)F)cc3)no2)cn1	inactive	
COc1ccnc(N2CC[C@H](c3nnc(-c4ccc(N(C)C)cc4)o3)C2)n1	inconclusive: 35.5 µM [inhibitor, single point]	
COc1ccc2[nH]c3c(c2c1)CCN(C)C31CCN(C(=O)CC(C)C)CC1	inconclusive: 28.2 µM [inhibitor, single point]	
Cc1ccc(S(=O)(=O)CCC(=O)OCC(=O)NC2CCC(C)CC2)cc1 (stereo not drawn)	inactive	
S=C1Cc2ccccc2N1	inconclusive: 14.1 µM [inhibitor, partial curve, poor fit]	
Cc1nn2c(-c3ccco3)ccnc2c1-c1ccc(Br)cc1	inactive	
CCOc1ccc(C(=O)c2cn(CC(=O)Nc3cccc(OC)c3)c3cc4c(cc3c2=O)OCCO4)cc1	inconclusive: 15.8 µM [inhibitor, partial curve, poor fit]	
CC(=O)NC(C(=O)NCc1ccccc1)C1CCCC1 (stereo not drawn)	inactive	

Compound	Potency	activity change, negative = inhibition
Cc1ccc(-c2cc(N)n(-c3ccc(C)cc3)n2)cc1	inconclusive: 17.8 µM [inhibitor, single point]	
Cc1[nH]n2c(=O)cc(-c3ccc(Cl)cc3)nc2c1-c1ccccc1	inconclusive: 17.8 µM [inhibitor, partial curve, poor fit]	
COc1cc(OC)c(OC)cc1CN1CCc2nc(Nc3ccc4c(c3)OCCO4)ncc2C1	inconclusive: 35.5 µM [inhibitor, single point]	
COc1ccc(Nc2ccc3c(n2)CN(Cc2ccc(C(F)(F)F)cc2)C(=O)CO3)cn1	active: 11.2 µM	
Cc1ccc(C)c(C(=O)NCc2nnc3c(-c4nc(C(C)C)no4)cccn23)c1	inconclusive: 14.1 µM [inhibitor, partial curve]	
Cn1c(Cn2cccn2)nnc1C1CC(NC(=O)c2sccc2N)C1 (stereo not drawn)	active: 15.8 µM	
O=C(CC(F)(F)F)N1CCC(c2noc(-c3cccnc3)n2)C1 (stereo not drawn)	inactive	
CCOc1ccc2c(n1)CCN(C(=O)c1ccc(OC)nc1OC)C2	inconclusive: 17.8 µM [inhibitor, partial curve, poor fit]	
Cc1ccc2snc(C(=O)N3CCN(C(=O)Nc4ccccc4)CC3)c2c1	inactive	
Cc1cc(C)n(C(C)CNC(=O)c2cccc(CCC(C)(C)O)c2)n1 (stereo not drawn)	inactive	
CCN(c1ccccc1)S(=O)(=O)c1cc(Br)cc2c1N(C(=O)C1CC1)CC2		inconclusive: -33% [inhibitor]
Cc1ccc(-c2cc(C(=O)NCc3cnn(C)c3C)c3ccccc3n2)cc1C	inconclusive: 31.6 µM [inhibitor, partial curve, poor fit]	
COc1ccc(-c2oc(=O)n(C)c2-c2ccc(OC)cc2)cc1	inconclusive: 25.1 µM [inhibitor, single point]	
O=c1c(-c2ccc(Cl)cc2)coc2cc(OCCN3CCCCC3)ccc12	inactive	
CC(C)NC(=O)N1CCC2(CC1)CN(C(=O)c1cccc3[nH]ccc13)Cc1ccccc1O2	inconclusive: 44.7 µM [inhibitor, partial curve]	
O=C(NCCc1csc(-c2ccc(C(F)(F)F)cc2)n1)c1ccc(F)c(F)c1	inconclusive: 28.2 µM [inhibitor, partial curve, poor fit]	
CCN(CC(=O)NCc1cccs1)C(=O)/C=C/c1cc(OC)ccc1OC	inconclusive: 25.1 µM [inhibitor, partial curve, poor fit]	
Cc1cc(C)nc(Sc2nc(Sc3nc(C)cc(C)n3)nc(Sc3nc(C)cc(C)n3)n2)n1	inconclusive: 39.8 µM [inhibitor, single point]	
CC(C(=O)NC1CCCC1)N1CCC(C(=O)NCc2ccco2)CC1 (stereo not drawn)	inactive	
COC(=O)c1c(-c2cccs2)csc1NC(=O)c1ccc(Br)cc1	inconclusive: 39.8 µM [inhibitor, partial curve, poor fit]	
COc1ccc2nc(C)c(C(=O)OCC(=O)NCC3CCCO3)cc2c1 (stereo not drawn)	inactive	
